Laboratory results taken from PubChem BioAssay AID1030 (National Center for Advancing Translational Sciences (NCATS), 2008).
Out of some 220,000 compounds screened, about 16,000 (7.3%) were called active. This list was built around the results that the source calls inconclusive (neither active nor inactive); the mix of calls is not that of the screen. The call rests on the fitted dose curve; in most records, active means well fitted inhibition curve with a large enough effect (not every such curve was filed as active); inconclusive means small, poorly fitted or top-dose-only effect, or another doubt; inactive means no such curve, though single readings can be large or run the other way. Potencies of inconclusive entries are left out as doubtful fits.

Each compound was assayed against Aldehyde dehydrogenase 1A1 (Homo sapiens) (UniProt P00352) (assay: qHTS Assay for Inhibitors of Aldehyde Dehydrogenase 1 (ALDH1A1)). Conditions: Purified ALDH1A1, NADH fluorescence, propionaldehyde substrate; series mostly up to 75.3 µM; activity, negative = inhibition: at the top concentration.
Chain of UniProt P00352 (P00352 whole entry, looked up): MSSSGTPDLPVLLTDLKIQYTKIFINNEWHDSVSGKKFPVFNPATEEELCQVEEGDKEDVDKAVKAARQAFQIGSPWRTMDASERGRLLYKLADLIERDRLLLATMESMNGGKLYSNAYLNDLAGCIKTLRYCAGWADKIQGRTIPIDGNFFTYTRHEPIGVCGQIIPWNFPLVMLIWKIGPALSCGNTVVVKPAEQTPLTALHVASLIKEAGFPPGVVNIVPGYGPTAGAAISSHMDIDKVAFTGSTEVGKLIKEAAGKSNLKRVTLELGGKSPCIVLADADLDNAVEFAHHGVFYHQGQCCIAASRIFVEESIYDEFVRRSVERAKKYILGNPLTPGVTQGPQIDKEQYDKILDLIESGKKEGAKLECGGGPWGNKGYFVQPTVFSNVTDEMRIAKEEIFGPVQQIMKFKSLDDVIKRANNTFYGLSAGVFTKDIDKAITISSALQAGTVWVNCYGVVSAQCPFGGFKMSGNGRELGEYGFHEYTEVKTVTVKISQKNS
Potency means the concentration at half of the fitted maximal effect; tags describe the fitted curve by direction and shape.
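Wherever activity, negative = inhibition is given: plate controls were no enzyme wells and a reference inhibitor.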

Row | SMILES | Potency | activity, negative = inhibition
1 | CCCn1nc2cc(C(=O)NCCc3ccc(C)cc3)ccc2c1OCC | inconclusive [inhibitor, partial curve] | –
2 | Cc1ccc(CNS(=O)(=O)c2ccc3oc(C(=O)O)c(C)c3c2)cc1 | inconclusive [inhibitor, single point] | –
3 | N#CC(C#N)=Cc1ccc(-c2ccc(S(=O)(=O)N=C(N)N)cc2)o1 | inconclusive [inhibitor, partial curve] | –
4 | C/C(N)=C(/C#N)C(=O)COC(=O)c1ccccc1Cc1ccccc1 | inconclusive [inhibitor, single point] | –
5 | Cc1cccc(NC(=S)N(Cc2ccc(Br)cc2)Cc2ccc(C(=O)O)cc2)c1 | inconclusive [inhibitor, single point] | –
6 | CCOc1ccccc1OCC(=O)NNC(=O)Cn1cnc2c1c(=O)n(C)c(=O)n2C | – | inactive: 19.9%
7 | O=C(NCc1ccccc1)c1ccc(Br)o1 | – | inactive: -0.412%
8 | CCCNc1c(N)c(=O)oc2ccccc12 | – | inactive: -0.988%
9 | Cc1ccc(NC(=O)CC2Nc3ccccc3NC2=O)cc1Cl (stereo unspecified) | inconclusive [inhibitor, partial curve] | –
10 | CCOC(=O)c1ccccc1NC(=O)/C=C/C(=O)O | inconclusive [inhibitor, partial curve] | –
11 | COCCNc1cc(N)c([N+](=O)[O-])cc1[N+](=O)[O-] | inconclusive [inhibitor, single point] | –
12 | Cc1cc2c(sc3c(C)ccc(C)c32)c(C)n1 | – | inactive: -1.34%
13 | O=C(CCn1c(=O)sc2ccccc21)NCCC1=CCCCC1 | inconclusive [inhibitor, single point] | –
14 | Cn1c(=NC(=O)CSCC(=O)N2CCOCC2)sc2ccccc21 | inconclusive [inhibitor, single point] | –
15 | CC1CCCN(c2ccc([N+](=O)[O-])cc2C(=O)c2ccccc2)C1 (stereo unspecified) | inconclusive [inhibitor, partial curve] | –
16 | CCC(Sc1ccc2nnc(-c3ccc(F)cc3)n2n1)C(=O)OC (stereo unspecified) | inconclusive [inhibitor, single point] | –
17 | CCCn1nnc(NC(=O)COc2ccc(Cl)cc2)n1 | inconclusive [inhibitor, single point] | –
18 | CC(C)C(=O)Nc1nnc(NC(=S)Nc2ccccc2)s1 | inconclusive [inhibitor, single point] | –
19 | CCN1C(=O)c2ccccc2S(=O)(=O)c2ccc(C(=O)N3CCOCC3)cc21 | – | inactive: -11%
20 | O=C(NC1CCCC1)C(c1cc2c(cc1[N+](=O)[O-])OCO2)N1CCCC1 (stereo unspecified) | inconclusive [inhibitor, single point] | –
21 | COC(=O)c1sc(=S)n(-c2ccccc2OC)c1N | – | inactive: 7.27%
22 | Cc1ccc(/C=C2\SC(=S)N(/N=C/c3cc([N+](=O)[O-])ccc3O)C2=O)o1 | active: 7.08 µM | –
23 | COc1ccc2nc(SCC(=O)Nc3ccc(S(=O)(=O)Nc4onc(C)c4C)cc3)[nH]c2c1 | inconclusive [inhibitor, single point] | –

Row | SMILES | Potency | activity, negative = inhibition
24 | COc1ccc([N+](=O)[O-])cc1NC(=O)C(C)Sc1nc(-c2ccccc2)cs1 (stereo unspecified) | inconclusive [inhibitor, single point] | –
25 | Nc1c(-c2ccccc2)cnn1-c1ccc(C(=O)O)cc1 | – | inactive: -5.62%
26 | c1ccc(Cn2c(-c3ccccc3)nc3nc4ccccc4nc32)cc1 | inconclusive [inhibitor, partial curve] | –
27 | Cc1cc(C)n(-c2nnc(C)n2N)n1 | inconclusive [inhibitor, partial curve] | –
28 | O=C1c2ccccc2NC(c2ccccc2)N1NS(=O)(=O)c1ccccc1 (stereo unspecified) | inconclusive [inhibitor, partial curve] | –
29 | Nc1ncnc2c1cnn2-c1ccccc1 | inconclusive [inhibitor, single point] | –
30 | COc1ccc(NC(=O)[C@@H]2[C@@H]3C(=O)N(C4CCCCC4)C(=O)[C@@H]3C3c4ccccc4C=CN32)cc1 (stereo partly specified) | active: 0.501 µM | –
31 | COc1cccc(CNC(=O)c2c[nH]n3c(=O)c(Cl)c(C)nc23)c1 | inconclusive [inhibitor, single point] | –
32 | CCOC(=O)c1nc2sc3c(c2c(=O)[nH]1)CCCC3 | inconclusive [inhibitor, partial curve] | –
33 | CNC(=O)c1cc2cc(OC)ccc2n1CCN(Cc1ccccc1)Cc1ccccc1 | inconclusive [inhibitor, single point] | –
34 | O=C(NCc1csc(-c2cccs2)n1)C1CC1 | – | inactive: -8.54%
35 | Cc1nnc(SCC(=O)Nc2ccc(S(=O)(=O)N3CCCC3)cc2)n1N | inconclusive [inhibitor, single point] | –
36 | O=C(c1ccc2c(c1)OCO2)N1CCCc2ccccc21 | inconclusive [inhibitor, single point] | –
37 | CCOC(=O)N1CCN(CC(=O)Nc2cc(C)nn2-c2nc3ccccc3s2)CC1 | active: 15.8 µM | –
38 | COc1cccc(Cn2c(=O)c(-c3cn(C)c4ccccc34)nc3cnc(N4CCNCC4)nc32)c1 | inconclusive [inhibitor, partial curve] | –
39 | c1ccc(-c2csc(=Nc3cccnc3)n2CC2CCCO2)cc1 (stereo unspecified) | inconclusive [inhibitor, single point] | –
40 | COc1ccc(CC(=O)NCc2n[nH]c(=S)n2-c2ccc(F)cc2)cc1 | inconclusive [inhibitor, single point] | –
41 | S=C(NC1CC1)NC1CCCc2ccccc21 (stereo unspecified) | – | inactive: 8.18%
42 | CC(=O)/C(=C(/O)c1ccccc1)c1nc2ccccc2[nH]1 | – | inactive: -1.27%
43 | CCOc1ccc(C2C(C(=O)c3ccco3)=C(O)C(=O)N2Cc2cccnc2)cc1OC (stereo unspecified) | active: 25.1 µM | –
44 | Cc1ccc(S(=O)(=O)NCC(=O)N(CC(=O)NC2CCCCC2)Cc2ccco2)cc1 | active: 17.8 µM | –
45 | CCCC(=O)NC(=S)NNC(=O)c1ccc([N+](=O)[O-])cc1 | active: 17.8 µM | –
46 | CCCCCCC(=O)N(O)C1CC(=O)N(c2ccccc2)C1=O (stereo unspecified) | active: 0.316 µM | –
